B1: IL-12-Fc-8 (Fc fusion)
chain 1: TPDPGMFPCLHHSQNLLRAVSNMLQKARQTLEFYPCTSEEIAHEDITKDKTSTVEACLPLELTKNESCLNSRETSFITNGSCLASRKTSFMMALCLSSIYEDLKMYQVEFKTMNAKLLMDPKRQIFLDQNMLAVIDELMQALNFNSETVPQKSSLEEPDFYKTKIKLCILLHAFRIRAVTIDRVMSYLNASGGGGSGGGGSGGGGS[skipping human IgG1 Fc with L234A L235A D265S S354C T366W (EU numbers)]
chain 2: IWELKKDVYVVELDWYPDAPGEMVVLTCDTPEEDGITWTLDQSSEVLGSGKTLTIQVKEFGDAGQYTCHKGGEVLSHSLLLLHKKEDGIWSTDILKDQKEPKNKTFLRCEAKNYSGRFTCWWLTTISTDLTFSVKSSRGSSDPQGVTCGAATLSAERVRGDNKEYEYSVECQEDSACPAAEESLPIEVMVDAVHKLKYENYTSSFFIRDIIKPDPPKNLQLKPLKNSRQVEVSWEYPDTWSTPHSYFSLTFCVQVQGKSKREKKDRVFTDKTSATVICRKNASISVRAQDRYYSSSWSEWASVPCSGGGGDKTHTCPPCPAPEAAGGPSVFLFPPKPKDTLMISRTPEVTCVVVSVSHEDPEVKFNWYVDGVEVHNAKTKPREEQYNSTYRVVSVLTVLHQDWLNGKEYKCKVSNKALPAPIEKTISKAKGQPREPQVCTLPPSRDELTKNQVSLSCAVKGFYPSDIAVEWESNGQPENNYKTTPPVLDSDGSFFLVSKLTVDKSRWQQGNVFSCSVMHEALHNHYTQKSLSLSPGK
B2: IL-12-Fc-11 (Fc fusion)
chain 1: TPDPGMFPCLHHSQNLLRAVSNMLQKARQTLEFYPCTSEEIDHADITKDKTSTVEACLPLELTKNESCLNSRETSFITNGSCLASRKTSFMMALCLSSIYEDLKMYQVEFKTMNAKLLMDPKRQIFLDQNMLAVIDELMQALNFNSETVPQKSSLEEPDFYKTKIKLCILLHAFRIRAVTIDRVMSYLNASGGGGSGGGGSGGGGS[skipping human IgG1 Fc with L234A L235A D265S S354C T366W (EU numbers)]
chain 2: IWELKKDVYVVELDWYPDAPGEMVVLTCDTPEEDGITWTLDQSSEVLGSGKTLTIQVKEFGDAGQYTCHKGGEVLSHSLLLLHKKEDGIWSTDILKDQKEPKNKTFLRCEAKNYSGRFTCWWLTTISTDLTFSVKSSRGSSDPQGVTCGAATLSAERVRGDNKEYEYSVECQEDSACPAAEESLPIEVMVDAVHKLKYENYTSSFFIRDIIKPDPPKNLQLKPLKNSRQVEVSWEYPDTWSTPHSYFSLTFCVQVQGKSKREKKDRVFTDKTSATVICRKNASISVRAQDRYYSSSWSEWASVPCSGGGGDKTHTCPPCPAPEAAGGPSVFLFPPKPKDTLMISRTPEVTCVVVSVSHEDPEVKFNWYVDGVEVHNAKTKPREEQYNSTYRVVSVLTVLHQDWLNGKEYKCKVSNKALPAPIEKTISKAKGQPREPQVCTLPPSRDELTKNQVSLSCAVKGFYPSDIAVEWESNGQPENNYKTTPPVLDSDGSFFLVSKLTVDKSRWQQGNVFSCSVMHEALHNHYTQKSLSLSPGK
B3: IL-12-Fc-14 (Fc fusion)
chain 1: TPDPGMFPCLHHSQNLLRAVSNMLQKARQTLEFYPCTSEEIDHEDITKDKTSTVEACLPLELTKNESCLNSRETSFITNGSCLASRKTSFMMALCLSSIYEDLKMYQVEFKTMNAKLLMDPKRQIFLDQNMLAVIDELMQALNFNSETVPQKSSLEEPKFYKTKIKLCILLHAFRIRAVTIDRVMSYLNASGGGGSGGGGSGGGGS[skipping human IgG1 Fc with L234A L235A D265S S354C T366W (EU numbers)]
chain 2: IWELKKDVYVVELDWYPDAPGEMVVLTCDTPEEDGITWTLDQSSEVLGSGKTLTIQVKEFGDAGQYTCHKGGEVLSHSLLLLHKKEDGIWSTDILKDQKEPKNKTFLRCEAKNYSGRFTCWWLTTISTDLTFSVKSSRGSSDPQGVTCGAATLSAERVRGDNKEYEYSVECQEDSACPAAEESLPIEVMVDAVHKLKYENYTSSFFIRDIIKPDPPKNLQLKPLKNSRQVEVSWEYPDTWSTPHSYFSLTFCVQVQGKSKREKKDRVFTDKTSATVICRKNASISVRAQDRYYSSSWSEWASVPCSGGGGDKTHTCPPCPAPEAAGGPSVFLFPPKPKDTLMISRTPEVTCVVVSVSHEDPEVKFNWYVDGVEVHNAKTKPREEQYNSTYRVVSVLTVLHQDWLNGKEYKCKVSNKALPAPIEKTISKAKGQPREPQVCTLPPSRDELTKNQVSLSCAVKGFYPSDIAVEWESNGQPENNYKTTPPVLDSDGSFFLVSKLTVDKSRWQQGNVFSCSVMHEALHNHYTQKSLSLSPGK
B4: IL-12-Fc-13 (Fc fusion)
chain 1: TPDPGMFPCLHHSQNLLRAVSNMLQKARQTLEFYPCTSEEIDHRDITKDKTSTVEACLPLELTKNESCLNSRETSFITNGSCLASRKTSFMMALCLSSIYEDLKMYQVEFKTMNAKLLMDPKRQIFLDQNMLAVIDELMQALNFNSETVPQKSSLEEPDFYKTKIKLCILLHAFRIRAVTIDRVMSYLNASGGGGSGGGGSGGGGS[skipping human IgG1 Fc with L234A L235A D265S S354C T366W (EU numbers)]
chain 2: IWELKKDVYVVELDWYPDAPGEMVVLTCDTPEEDGITWTLDQSSEVLGSGKTLTIQVKEFGDAGQYTCHKGGEVLSHSLLLLHKKEDGIWSTDILKDQKEPKNKTFLRCEAKNYSGRFTCWWLTTISTDLTFSVKSSRGSSDPQGVTCGAATLSAERVRGDNKEYEYSVECQEDSACPAAEESLPIEVMVDAVHKLKYENYTSSFFIRDIIKPDPPKNLQLKPLKNSRQVEVSWEYPDTWSTPHSYFSLTFCVQVQGKSKREKKDRVFTDKTSATVICRKNASISVRAQDRYYSSSWSEWASVPCSGGGGDKTHTCPPCPAPEAAGGPSVFLFPPKPKDTLMISRTPEVTCVVVSVSHEDPEVKFNWYVDGVEVHNAKTKPREEQYNSTYRVVSVLTVLHQDWLNGKEYKCKVSNKALPAPIEKTISKAKGQPREPQVCTLPPSRDELTKNQVSLSCAVKGFYPSDIAVEWESNGQPENNYKTTPPVLDSDGSFFLVSKLTVDKSRWQQGNVFSCSVMHEALHNHYTQKSLSLSPGK
B5: IL-12-Fc-10 (Fc fusion)
chain 1: TPDPGMFPCLHHSQNLLRAVSNMLQKARQTLEFYPCTSEEIWHEDITKDKTSTVEACLPLELTKNESCLNSRETSFITNGSCLASRKTSFMMALCLSSIYEDLKMYQVEFKTMNAKLLMDPKRQIFLDQNMLAVIDELMQALNFNSETVPQKSSLEEPDFYKTKIKLCILLHAFRIRAVTIDRVMSYLNASGGGGSGGGGSGGGGS[skipping human IgG1 Fc with L234A L235A D265S S354C T366W (EU numbers)]
chain 2: IWELKKDVYVVELDWYPDAPGEMVVLTCDTPEEDGITWTLDQSSEVLGSGKTLTIQVKEFGDAGQYTCHKGGEVLSHSLLLLHKKEDGIWSTDILKDQKEPKNKTFLRCEAKNYSGRFTCWWLTTISTDLTFSVKSSRGSSDPQGVTCGAATLSAERVRGDNKEYEYSVECQEDSACPAAEESLPIEVMVDAVHKLKYENYTSSFFIRDIIKPDPPKNLQLKPLKNSRQVEVSWEYPDTWSTPHSYFSLTFCVQVQGKSKREKKDRVFTDKTSATVICRKNASISVRAQDRYYSSSWSEWASVPCSGGGGDKTHTCPPCPAPEAAGGPSVFLFPPKPKDTLMISRTPEVTCVVVSVSHEDPEVKFNWYVDGVEVHNAKTKPREEQYNSTYRVVSVLTVLHQDWLNGKEYKCKVSNKALPAPIEKTISKAKGQPREPQVCTLPPSRDELTKNQVSLSCAVKGFYPSDIAVEWESNGQPENNYKTTPPVLDSDGSFFLVSKLTVDKSRWQQGNVFSCSVMHEALHNHYTQKSLSLSPGK
B6: IL-12-Fc-9 (Fc fusion)
chain 1: TPDPGMFPCLHHSQNLLRAVSNMLQKARQTLEFYPCTSEEILHEDITKDKTSTVEACLPLELTKNESCLNSRETSFITNGSCLASRKTSFMMALCLSSIYEDLKMYQVEFKTMNAKLLMDPKRQIFLDQNMLAVIDELMQALNFNSETVPQKSSLEEPDFYKTKIKLCILLHAFRIRAVTIDRVMSYLNASGGGGSGGGGSGGGGS[skipping human IgG1 Fc with L234A L235A D265S S354C T366W (EU numbers)]
chain 2: IWELKKDVYVVELDWYPDAPGEMVVLTCDTPEEDGITWTLDQSSEVLGSGKTLTIQVKEFGDAGQYTCHKGGEVLSHSLLLLHKKEDGIWSTDILKDQKEPKNKTFLRCEAKNYSGRFTCWWLTTISTDLTFSVKSSRGSSDPQGVTCGAATLSAERVRGDNKEYEYSVECQEDSACPAAEESLPIEVMVDAVHKLKYENYTSSFFIRDIIKPDPPKNLQLKPLKNSRQVEVSWEYPDTWSTPHSYFSLTFCVQVQGKSKREKKDRVFTDKTSATVICRKNASISVRAQDRYYSSSWSEWASVPCSGGGGDKTHTCPPCPAPEAAGGPSVFLFPPKPKDTLMISRTPEVTCVVVSVSHEDPEVKFNWYVDGVEVHNAKTKPREEQYNSTYRVVSVLTVLHQDWLNGKEYKCKVSNKALPAPIEKTISKAKGQPREPQVCTLPPSRDELTKNQVSLSCAVKGFYPSDIAVEWESNGQPENNYKTTPPVLDSDGSFFLVSKLTVDKSRWQQGNVFSCSVMHEALHNHYTQKSLSLSPGK
B7: IL-12-Fc-12 (Fc fusion)
chain 1: TPDPGMFPCLHHSQNLLRAVSNMLQKARQTLEFYPCTSEEIDHKDITKDKTSTVEACLPLELTKNESCLNSRETSFITNGSCLASRKTSFMMALCLSSIYEDLKMYQVEFKTMNAKLLMDPKRQIFLDQNMLAVIDELMQALNFNSETVPQKSSLEEPDFYKTKIKLCILLHAFRIRAVTIDRVMSYLNASGGGGSGGGGSGGGGS[skipping human IgG1 Fc with L234A L235A D265S S354C T366W (EU numbers)]
chain 2: IWELKKDVYVVELDWYPDAPGEMVVLTCDTPEEDGITWTLDQSSEVLGSGKTLTIQVKEFGDAGQYTCHKGGEVLSHSLLLLHKKEDGIWSTDILKDQKEPKNKTFLRCEAKNYSGRFTCWWLTTISTDLTFSVKSSRGSSDPQGVTCGAATLSAERVRGDNKEYEYSVECQEDSACPAAEESLPIEVMVDAVHKLKYENYTSSFFIRDIIKPDPPKNLQLKPLKNSRQVEVSWEYPDTWSTPHSYFSLTFCVQVQGKSKREKKDRVFTDKTSATVICRKNASISVRAQDRYYSSSWSEWASVPCSGGGGDKTHTCPPCPAPEAAGGPSVFLFPPKPKDTLMISRTPEVTCVVVSVSHEDPEVKFNWYVDGVEVHNAKTKPREEQYNSTYRVVSVLTVLHQDWLNGKEYKCKVSNKALPAPIEKTISKAKGQPREPQVCTLPPSRDELTKNQVSLSCAVKGFYPSDIAVEWESNGQPENNYKTTPPVLDSDGSFFLVSKLTVDKSRWQQGNVFSCSVMHEALHNHYTQKSLSLSPGK

The experiment addresses human IL-12 receptor (IL-12R) (human, UniProt P42701 24-662; Q99665 24-862). Kind of experiment: cell-based or functional assay.
For B1, the “Mean Fold Reduction (potency vs IL-12 WT by EC50; HEK-Blue IL-12 STAT4/SEAP reporter)” value is 1 fold.
Next, B2: 4 fold.
Next, B3: 4 fold; B4: 2 fold; B5: 1 fold.
On to B6, for which the “Mean Fold Reduction (potency vs IL-12 WT by EC50; HEK-Blue IL-12 STAT4/SEAP reporter)” value was 2 fold.
Next, B7: 6 fold.

The record behind these values is patent publication US20250051434A1 (Merck Sharp & Dohme, published 2025).
